Data: patent publication US12473350B2, “Recombinant humanized type III collagen microsphere with innovative spatial structure, and design, preparation process and usethereof” (Nanjing Tzone Biotechnology Co., Ltd., priority 2023, dated 2025)

Legend:
[1] = Negative staining electron microscopy and 3D reconstruction, size measurement; type: physicochemical; details: negative staining EM 3D density map
Description: The protein sample is diluted with the PBS buffer to a concentration of 0.1 mg/mL, 8 μL of diluted protein sample solution is taken to drip onto a glow-discharge treated (15 mA for 90 seconds, PELCO easiGlow™) copper grid and incubated for 40 seconds. After the excess sample is removed, the obtained copper grid is quickly washed once with 0.75% uranium formate, and further incubated for 40 s by dripping 10 μL of 0.75% uranium formate; and then the excess solution is removed, allowing it to air dried.
The prepared copper grid containing the sample is placed under a Talos 120 electron microscope (Thermo Fisher Scientific, USA) for sample observation at a voltage of 120 kV. Negative staining photographs are captured at a magnification of 92,000× using a Ceta-D camera (Thermo Fisher Scientific, USA), with a pixel size of 1.9 Å/pixel.
The negative staining data are processed using CryoSPARC v4.0.3 version software for two-dimensional (2D) classification, three-dimensional (3D) reconstruction, and 3D classification.
The selected particles are first subjected to 3D reconstruction (ab-initio reconstruction), resulting in five classes of 3D reconstruction models (ab-initio models), as shown in FIG. 9. The finally selected 3D density map of the cyclic collagen corresponds to the fourth class (3,244 particles, approximately 40%). […]

[2] = tested on: Human Skin Fibroblasts (HSF) cells; assay: Cell scratch assay, HSF cell migration; type: cell-based; details: concentrations of 0.01% and 0.02%, 24 h of culture
Description: The principle of scratch test is to draw a line in the cell growth area on a monolayer of adherent cells cultured in vitro in a dish or plate using a micro-pipette tip, suction off the cells in the scratch area, and then continue to culture until the set time (such as 24 hours) to observe whether the peripheral cells have migrated to the central scratch area, in order to determine the growth and migration ability of the cells.
First, a marker is used to draw horizontal lines evenly on the back of a 6-well plate by using a ruler, with a distance between two horizontal lines being approximately 0.5-1 cm, in which each well is crossed by three lines. Approximately 5×10^5 cells are added to each well and cultured in an incubator. At the next day, the cell growth is observed; once the cells cover the bottom of the wells, a micropipette tip is used to scratch on the plate bottom by aid of the ruler, where the micropipette tip is perpendicular as possible to the horizontal lines on the back. Then, the cells are washed three times with PBS to remove the scratched cells, and the culture medium containing 1% FBS is added. The plate is placed in a 37° C., 5% CO2 incubator for cultivation. After 24 hours, the plate is taken photographs to record the convergence degree of the scratches in each well. […]

[3] = In-vivo degradation: residual humanized type III collagen at injection site; set-up: species or system C57BL/6J female mice; details: for AV ± ESD: ESD printed in the row below; for Detected value after subtracting blank / Residual amount: initial injection amount 1 mg, individual animals, listed as Experimental group
From the text: Mouse model: C57BL/6J female mice, weighing 20 g per mouse.
The experimental group receives an injection of recombinant humanized type III collagen microsphere with innovative spatial structure obtained from Example 2, while the control group receives an injection of commercialized recombinant humanized type III collagen lyophilized fiber. Dissection time points are set at 1 d, 14 d, 28 d, and 56 d, with 3 animals dissected at each time point. At the same time, a control group and a blank group are set, totaling 36 animals.
3. Experimental Procedure 3.1. Surgical Operation • 1) Weighing: Prior to injection, the weight of the animal is weighed to determine the total injection dosage based on the animal's body weight. Subsequently, the injection volume at each injection site is calculated based on the total injection volume and the number of injection points. • 2) The back of an animal is de-haired, and with the spinal column as a midline, one injection area is set on each of the left and right sides of the back, resulting in two injection sites per animal. The product is implanted intradermally in the back, and the injection volume at each injection site is ½ of the total injection volume.
Specific procedures: For the 28 d and 56 d time points, injections shall be administered 28 days in advance; for the 14 d time points, injections shall be administered 14 days in advance; and for the 1 d time points, injections shall be administered 24 h in advance. At experimental time point of zero, mice of 1 d 14 d, and 28 d time points are killed for detection, while the mouse of 56 d time point is continued to be observed for additional 28 days. The detailed process is illustrated in FIG. 14.
Taking 1 d, 14 d, 28 d, and 56 d after injection as the observation time points, the experimental animals are killed, and the tissue at the injection site is fixed in 10% formalin and then embedded with paraffin for slicing, and the obtained slices are subjected to Hematoxylin-eosin (HE) staining and Sirius Red staining to detect the content of humanized type III collagen.

[4] = tested on: Human skin fibroblasts (HSF cells); assay: MTT assay, effect on HSF cell growth; type: cell-based; details: for RGR (24 h) / RGR (48 h): HSF cells
Description: Dimethyl sulfoxide (DMSO) can dissolve formazan in cells, and its light absorption value can be measured at a wavelength of […] using an enzyme-linked immunosorbent assay, which can indirectly reflect the number of live cells. Within a certain range of cell numbers, the amount of MTT crystals formed is proportional to the number of cells.
Logarithmic phase cells are collected and the cell suspension concentration is adjusted. 100 μL of cell suspension is added per well and plated to adjust the density of the cells to be tested to 10,000 cells/well, and the edge wells are filled with sterile PBS. The cells are incubated under 5% CO2 at 37° C. until the cell monolayer spreads over all the bottom of the wells. Then, the drug in a concentration gradient is added; in principle, the drug can be added once the cells have adhered, with five parallel settings. The incubation is performed under 5% CO2 at 37° C. for 24 h or 48 h and the cells are observed under an inverted microscope. 20 μL of MTT solution (5 mg/mL, i.e., 0.5% MTT) is added to each well and the incubation is continued for 4 h. If the drug can react with MTT, the culture medium may be discarded after centrifugation, followed by carefully washing 2-3 times with PBS, and then adding the MTT-containing culture solution. The culture is terminated and the culture solution is carefully suctioned out from each well. 150 μL of Dimethyl Sulfoxide (DMSO) is added to each well and the culture plate is placed on a shaker to shake at a low speed for 10 min to fully dissolve the crystals. The light absorption value of each well is measured at […] using an Enzyme-Linked Immunosorbent Assay (ELISA) reader. Zero wells (culture medium, MTT, DMSO) and negative control wells (cells, drug dissolving medium at the same concentration, culture solution, MTT, DMSO) are set at the same time.

[5] = tested on: skin at the local injection site; set-up: species or system C57BL/6J female mice; details: mouse, in vivo
From the text: Mouse model: C57BL/6J female mice, weighing 20 g per mouse. The experimental group receives an injection of recombinant humanized type III collagen microsphere with innovative spatial structure obtained from Example 2, while the control group receives an injection of commercialized recombinant humanized type III collagen lyophilized fiber. Dissection time points are set at 1 d, 14 d, 28 d, and 56 d, with 3 animals dissected at each time point. At the same time, a control group and a blank group are set, totaling 36 animals. 3. Experimental Procedure 3.1. Surgical Operation • 1) Weighing: Prior to injection, the weight of the animal is weighed to determine the total injection dosage based on the animal's body weight. Subsequently, the injection volume at each injection site is calculated based on the total injection volume and the number of injection points. • 2) The back of an animal is de-haired, and with the spinal column as a midline, one injection area is set on each of the left and right sides of the back, resulting in two injection sites per animal. The product is implanted intradermally in the back, and the injection volume at each injection site is ½ of the total injection volume. Within 28 days after injection, the experiment animals are observed daily for their activity, feeding and mental state, and weighed once a week. […]

[6] = Day 1, mouse skin injection site
[7] = Day 14, mouse skin injection site
[8] = Day 28, mouse skin injection site
[9] = Day 56, mouse skin injection site

B1: Example 2: recombinant humanized type III collagen microsphere, cyclized 72-amino-acid sequence SEQ NO: 1, expressed in E. coli BL21 (DE3) (protein)
chain: GERGAPGFRGPAGPNGIPGEKGPAGERGAPGPAGPRGERGAPGFRGPAGPNGIPGEKGPAGERGAPGPAGPR
modifications: cyclized
Question: What does the source list for B1?
Answer: Diameter of annular spherical structure [1]: about 7 nm; Pore size [1]: about 3 nm; Effect on HSF cell migration (scratch convergence) [2]: significant pro-cell migration activity; AV ± ESD ([3]; Day 1, average of residual amount (mg) of 3 animals): 0.904; Detected value after subtracting blank [3, 6]: 0.0901 mg/mL and 0.0902 mg/mL and 0.0911 mg/mL; Residual amount [3, 6]: 0.901 mg and 0.902 mg and 0.911 mg; Residual rate ([3]; Day 1 after injection into mouse skin (reference, relative to Day 1 average)): 100%; AV ± ESD ([3]; Day 14, average of residual amount (mg) of 3 animals): 0.534; Detected value after subtracting blank [3, 7]: 0.0523 mg/mL and 0.0566 mg/mL and 0.0514 mg/mL; Residual amount [3, 7]: 0.523 mg and 0.566 mg and 0.514 mg; Residual rate ([3]; Day 14 after injection into mouse skin, relative to Day 1 average): 58.9%; AV ± ESD ([3]; Day 28, average of residual amount (mg) of 3 animals): 0.217; Detected value after subtracting blank [3, 8]: 0.0213 mg/mL and 0.0224 mg/mL and 0.0216 mg/mL; Residual amount [3, 8]: 0.213 mg and 0.224 mg and 0.216 mg; Residual rate ([3]; Day 28 after injection into mouse skin, relative to Day 1 average): 24.1%; AV ± ESD ([3]; Day 56, average of residual amount (mg) of 3 animals): 0.013; Detected value after subtracting blank [3, 9]: 0.0013 mg/mL and 0.0015 mg/mL and 0.0011 mg/mL; Residual amount [3, 9]: 0.013 mg and 0.015 mg and 0.011 mg; Residual rate ([3]; Day 56 after injection into mouse skin, relative to Day 1 average): 1.44%; In vivo degradation period versus control group ([3]; mouse skin injection site, 1 d to 56 d): significant property of prolonging the degradation period in vivo; RGR (24 h) ([4]; 100 μg/ml): 103.90%; RGR (48 h) ([4]; 100 μg/ml): 118.20%; RGR (24 h) ([4]; 200 μg/ml): 105.80%; RGR (48 h) ([4]; 200 μg/ml): 123.40%; RGR (24 h) ([4]; 400 μg/ml): 112.1%; RGR (48 h) ([4]; 400 μg/ml): 139.1%; Effect on HSF cell growth ([4]; concentrations of 0.01% and 0.02%, after 24 h, comparable to commercialized collagen control): growth-promoting effect; Irritant reaction to the skin [5]: no significant irritant reaction to the skin

“And” between values parts separate entries of the source, which are not always exact repeats. Equal values may be shown once.
